# Data from PubChem BioAssay AID2675 (National Center for Advancing Translational Sciences (NCATS), 2010).
# In all, about 280,000 compounds went through this assay and about 100 (0.036%) were called active. The shares of active, inactive and inconclusive entries below differ from those in the screen. Calls come from the whole dose curve; as a rule, active = well fitted inhibition curve with a large enough effect in the signal ratio, with a control signal flat (not every such curve was filed as active); inconclusive = small, poorly fitted or top-dose-only effect, or effect the other way, or a change in a side signal; inactive = no such curve, though single readings can be large or run the other way; the % refers to the signal ratio. Where the call is inconclusive, the potency comes from a doubtful curve fit. “Side channel” marks fits to a control or component signal instead of the main read-out.
# Target: Muscleblind-like protein 1 (Homo sapiens) (UniProt Q9NR56)
# Sequence of UniProt Q9NR56 (Q9NR56 whole entry, looked up): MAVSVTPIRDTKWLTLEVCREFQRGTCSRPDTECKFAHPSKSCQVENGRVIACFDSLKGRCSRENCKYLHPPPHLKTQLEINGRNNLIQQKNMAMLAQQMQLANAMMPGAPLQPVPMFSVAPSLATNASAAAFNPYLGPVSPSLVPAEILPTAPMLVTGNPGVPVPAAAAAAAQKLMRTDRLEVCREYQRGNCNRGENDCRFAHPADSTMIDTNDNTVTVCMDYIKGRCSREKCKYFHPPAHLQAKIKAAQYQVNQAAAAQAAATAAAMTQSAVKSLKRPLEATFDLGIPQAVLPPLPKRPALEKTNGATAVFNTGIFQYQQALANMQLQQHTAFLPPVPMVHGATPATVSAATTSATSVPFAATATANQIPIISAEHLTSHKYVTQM
# Test: qHTS Assay for Inhibitors of MBNL1-poly(CUG) RNA binding
# Settings: TR-FRET MBNL1-His/biotin-(CUG)12 binding, 665/545 ratio; series mostly up to 57.5 µM
# In short: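 Ratiometric TR-FRET (665 over 545 nm, excitation 340 nm) tracks disruption of MBNL1-His/biotin-(CUG)12 complex after 60 min at room temperature, with compounds at 92 nM to 58 uM final.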
# Potency is the fitted concentration of half-maximal effect; tags give direction and shape of the fitted curve or compound fluorescence and quenching.
row,Structure (SMILES),Potency
1,CC(=O)NCC(=O)OCC(=O)c1ccc2ccccc2c1,"inconclusive: 22.4 µM [quencher, side channel, partial curve]"
2,NS(=O)(=O)c1ccc(NC(=O)COC(=O)/C=C/c2ccc([N+](=O)[O-])cc2)cc1,"inconclusive: 2.51 µM [quencher, side channel, full curve]"
3,O=C(CSc1nnnn1-c1ccc(O)cc1)c1cc2ccccc2o1,"inconclusive: 17.8 µM [quencher, side channel, partial curve]"
4,Nc1ccc(C(=O)OCc2ccncc2)cc1[N+](=O)[O-],"inconclusive: 14.1 µM [quencher, side channel, partial curve]"
5,CCc1ccc(C(C)NC(=O)/C(C#N)=C\c2cn[nH]c2-c2ccccc2)cc1 (configuration not stated),inactive
6,N#C/C(=N\Nc1ccccc1Cl)C(=O)c1ccccc1,inactive
7,CN(C)CCCN(C(=O)C1COc2ccccc2O1)c1nc2ccc(F)cc2s1 (configuration not stated),"inconclusive: 63.1 µM [inhibitor, single point]"
8,Cc1nn(-c2ccccc2)c(Cl)c1C(=O)NCC(=O)O,"inconclusive: 0.112 µM [quencher, side channel, full curve, poor fit]"
9,O=[N+]([O-])c1cccnc1N1CCN(c2ccc(F)cc2)CC1,"inconclusive: 10 µM [quencher, side channel, partial curve]"
10,O=C(N/N=C/c1ccccc1O)c1cc[n+]([O-])cc1,"inconclusive: 28.2 µM [quencher, side channel, partial curve]"
11,CCC(NC(=O)NC1CCCCC1)c1ccccc1 (configuration not stated),inactive
12,O=C(N/N=C/c1ccc2nccnc2c1)c1ccncc1,"inconclusive: 14.1 µM [quencher, side channel, partial curve]"
13,O=C(Nc1ccc2c(c1)OCO2)c1ccc([N+](=O)[O-])cc1[N+](=O)[O-],"inconclusive: 7.08 µM [quencher, side channel, partial curve]"
14,O=C(Nc1cccc(NC(=O)c2cccs2)c1)c1ccc([N+](=O)[O-])o1,"inconclusive: 12.6 µM [quencher, side channel, partial curve]"
15,COc1ccc(NC(=S)N2CCN(S(=O)(=O)c3ccc(F)cc3)CC2)cc1,inactive
16,CC(=O)Nc1ccc(OC(=O)c2cc([N+](=O)[O-])ccc2Cl)cc1,"inconclusive: 8.91 µM [quencher, side channel, partial curve]"
17,CC(C)c1ccc(-c2c(C#N)c(N)nc(SCC(=O)N3CCCCC3)c2C#N)cc1,"inconclusive: 28.2 µM [fluorescent, side channel, single point]"
18,NC(=NC1CCCCC1)c1ccc([N+](=O)[O-])cc1,"inconclusive: 14.1 µM [quencher, side channel, partial curve]"
19,N=c1c(C(=O)NC2CCCCC2)cc2c(=O)n3ccccc3nc2n1Cc1ccccc1,"inconclusive: 4.47 µM [quencher, full curve]"

row,Structure (SMILES),Potency
1,N/C(=N\OC(=O)c1cc([N+](=O)[O-])ccc1Cl)c1cccnc1,"inconclusive: 2.24 µM [quencher, side channel, partial curve, poor fit]"
2,Nc1nnc(-c2cccc([N+](=O)[O-])c2)s1,"inconclusive: 12.6 µM [quencher, side channel, partial curve]"
3,O=C1N/C(=N/O)S/C1=C\c1ccccc1-n1cccn1,"inconclusive: 28.2 µM [quencher, side channel, partial curve]"
4,COc1ccccc1NS(=O)(=O)c1ccc2oc(SCc3ccc(C#N)cc3)nc2c1,"inconclusive: 7.94 µM [fluorescent, side channel, partial curve]"
5,COc1ccc(OC)c(NC(=O)CCNS(=O)(=O)c2cccc3nonc23)c1,"inconclusive: 14.1 µM [quencher, side channel, partial curve]"
6,CCn1c(O)c(C=NCc2ccccc2)sc1=S,"inconclusive: 28.2 µM [quencher, side channel, partial curve]"
7,C=CCN(CC=C)C(=S)NC(=O)c1ccc(-c2ccccc2)cc1,inactive
8,O=C(O)c1ccc(-n2nnc3ccccc32)c([N+](=O)[O-])c1,"inconclusive: 10 µM [quencher, side channel, partial curve]"
9,COc1cccc(/C=N/NC(=O)N/N=C/c2cccc(OC)c2O)c1O,"inconclusive: 22.4 µM [quencher, side channel, single point]"
10,O=C(Nc1ccc([N+](=O)[O-])cn1)C1CCCCC1,"inconclusive: 25.1 µM [quencher, side channel, partial curve]"
11,CC(C)(C)OC(=O)N1C[C@H](O)C[C@H]1C(=O)OCC(=O)c1ccc([N+](=O)[O-])cc1,"inconclusive: 4.47 µM [quencher, side channel, partial curve]"
12,CCCNC(=O)CCCCn1c(=S)[nH]c2c([nH]c3ccc(OC)cc32)c1=O,inactive
13,O=c1oc2cc([N+](=O)[O-])ccc2nc1/C=C(O)/C=C/c1ccccc1,"inconclusive: 20 µM [quencher, side channel, partial curve]"
14,Cc1cc(NC(=O)c2ccc3c(c2)C(=O)N(Cc2cccnc2)C3=O)no1,"inconclusive: 3.16 µM [quencher, side channel, full curve]"
15,O=C(COC(=O)c1cc[n+]([O-])cc1)Nc1ccc([N+](=O)[O-])cc1,"inconclusive: 25.1 µM [quencher, side channel, partial curve]"
16,COc1ccc(OC)c(/C=N/N=C2\SCC(=O)N2Cc2ccco2)c1,"inconclusive: 0.178 µM [quencher, side channel, full curve, poor fit]"
17,O=C1CCc2cc(S(=O)(=O)N3CCC(C(=O)NCc4ccccn4)CC3)ccc2N1,inactive
18,CCn1c2c(c3ccc(OC)cc31)CCCC2=O,"inconclusive: 39.8 µM [quencher, side channel, single point]"
